Measurements taken from paper PMC4336329 (PLoS ONE, 2015).
Hit rate of the full screen: of about 310,000 compounds, about 14,000 (4.5%) showed an effect of 50% or more. Effects have a minus sign here. Some of the results follow.

molecular target: human ether-à-go-go-related gene (hERG) potassium channel (human, UniProt Q12809); assay: primary screen, population patch clamp on CHO cells stably expressing hERG
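Note: peak tail current of the secondary pulse compared with the same well before compound.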

Sequence of human ether-à-go-go-related gene (hERG) potassium channel (Q12809 whole entry, looked up): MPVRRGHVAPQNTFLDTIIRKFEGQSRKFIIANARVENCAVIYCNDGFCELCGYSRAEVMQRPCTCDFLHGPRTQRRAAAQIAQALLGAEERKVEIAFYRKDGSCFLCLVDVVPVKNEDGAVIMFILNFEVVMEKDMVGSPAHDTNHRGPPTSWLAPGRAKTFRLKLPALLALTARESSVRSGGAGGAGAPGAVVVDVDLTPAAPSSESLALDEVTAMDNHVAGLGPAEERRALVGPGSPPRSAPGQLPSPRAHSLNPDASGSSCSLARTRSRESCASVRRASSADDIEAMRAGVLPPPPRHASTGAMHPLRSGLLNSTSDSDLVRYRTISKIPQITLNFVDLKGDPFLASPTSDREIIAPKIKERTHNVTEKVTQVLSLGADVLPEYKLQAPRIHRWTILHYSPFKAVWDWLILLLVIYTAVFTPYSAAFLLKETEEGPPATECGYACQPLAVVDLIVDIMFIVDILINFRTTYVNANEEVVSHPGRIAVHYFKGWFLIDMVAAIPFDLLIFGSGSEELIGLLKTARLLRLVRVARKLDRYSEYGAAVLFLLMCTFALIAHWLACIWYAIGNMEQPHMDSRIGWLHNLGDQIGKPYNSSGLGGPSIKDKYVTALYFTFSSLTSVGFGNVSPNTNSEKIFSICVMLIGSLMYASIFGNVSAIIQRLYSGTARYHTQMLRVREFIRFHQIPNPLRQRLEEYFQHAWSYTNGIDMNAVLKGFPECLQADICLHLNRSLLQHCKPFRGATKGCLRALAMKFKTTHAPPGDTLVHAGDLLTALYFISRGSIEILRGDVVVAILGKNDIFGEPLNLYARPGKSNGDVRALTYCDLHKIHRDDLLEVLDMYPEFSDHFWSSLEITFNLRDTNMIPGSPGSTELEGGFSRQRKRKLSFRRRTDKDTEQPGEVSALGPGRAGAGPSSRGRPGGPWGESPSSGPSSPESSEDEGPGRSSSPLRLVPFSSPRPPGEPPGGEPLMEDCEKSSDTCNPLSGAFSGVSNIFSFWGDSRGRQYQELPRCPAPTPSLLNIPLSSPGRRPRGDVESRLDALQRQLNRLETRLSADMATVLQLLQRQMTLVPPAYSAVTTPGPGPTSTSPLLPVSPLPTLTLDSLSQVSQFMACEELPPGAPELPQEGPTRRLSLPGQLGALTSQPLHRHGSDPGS

| SMILES | hERG current change (%, negative = inhibition) at 10uM [%] |
| --- | --- |
| CC(=C/c1ccco1)/C=N/NC(=O)c1nnn(-c2nonc2N)c1CN(C)C | -47.1 |
| COc1ccc(NC(=O)CCCCCn2nnc3ccccc3c2=O)cc1OC | 14.8 |
| COC(=O)C1=C(c2ccc(F)cc2F)C[C@@H]2CC[C@H]1N2C(=O)NCc1ccc2c(c1)OCO2 | -33.5 |
| COc1ccc(-c2nc(C#N)c(NCc3ccc(F)cc3)o2)cc1OC | -7.3 |
| CCN(CC)CCN(Cc1cc2cccc(C)c2[nH]c1=O)C(=S)Nc1ccccc1 | -66.2 |
| CC(=O)N1CCN(c2ccc(NC(=O)c3cccc(Cl)c3Cl)cc2)CC1 | -8.8 |
| CCn1c(SCCC(C)C)nnc1-c1c[nH]c2ccccc12 | -0.946 |
| O=C(CC1C(=O)NCCN1C(=O)c1ccccc1)Nc1cc(Cl)ccc1Cl (stereo not drawn) | -5.98 |
| NC(=O)CSc1nc(-c2ccccc2)nc2c1CCCC2 | 5.92 |
| CSc1nc(SCC(=O)NC(c2ccccc2)c2ccccc2)c2c3c(sc2n1)CN(C)CC3 | -8.86 |
| CCOC(=O)N1CCN(C(=O)COc2cccc3c2CCN(CC)C3=O)CC1 | 6.35 |
| COCCn1nnnc1C(c1cc2cccc(C)c2[nH]c1=O)N1CCN(c2ccccc2F)CC1 (stereo not drawn) | -13.8 |
| CCOC(=O)/C=C1\SCC(=O)N1CC(O)CN1C(=O)CS/C1=C\C(=O)OCC (stereo not drawn) | -14.3 |
| COC(=O)Nc1ccc(S(=O)(=O)N2CCC(C(=O)N3CCCCC3C)CC2)cc1 (stereo not drawn) | 16.3 |
| O=C(Nc1nc2ccccc2s1)C1CC(=O)N(c2ccc(F)cc2)C1 (stereo not drawn) | -25.6 |
| O=C(O)C(=O)O.O=[N+]([O-])c1ccccc1S(=O)(=O)N1CCN(Cc2ccc3c(c2)OCO3)CC1 | -1.78 |
| CCO[C@@H]1OC(C(=O)NCc2ccccc2)=C[C@H](c2ccc3c(c2)OCO3)[C@H]1CCCO | -26.6 |
| CC(=O)N/N=C(/c1ccccc1)C(O)c1ccccc1 (stereo not drawn) | 16 |
| COc1ccc(N2CCN(S(=O)(=O)c3ccc4oc(=O)ccc4c3)CC2)cc1 | 5.54 |
| COn1c(SCc2ccc(C)cc2C)nc2ccccc2c1=O | 7.64 |
| COCc1cc(C)nc(SCc2ccccc2Cl)c1C#N | 7.12 |

| SMILES | hERG current change (%, negative = inhibition) at 10uM [%] |
| --- | --- |
| NS(=O)(=O)c1ccc(NC(=O)COc2ncnc3c2cnn3-c2ccccc2)cc1 | 12.1 |
| CCO[C@H]1OC(C(=O)N2CCN(Cc3ccccc3)CC2)=C[C@@H](c2ccccc2)[C@@H]1CCCO | -9.53 |
| C/C(=N\NC(=O)C1(C)NC(C)(C)Cc2ccccc21)c1ccccc1 (stereo not drawn) | 11.8 |
| O=C(CCCN1C(=O)/C(=C/c2ccccc2Cl)SC1=S)N1CCCC1 | -11.2 |
| COc1ccc(OCC(=O)N/N=C/C(C)=C/c2ccco2)c(Br)c1 | 9.89 |
| O=C(O)c1cccc(Nc2nc3ccccc3nc2NS(=O)(=O)c2cccs2)c1 | 17.5 |
| Cc1nc2nc(COc3ccccc3)nn2c(C)c1Cl | -44.4 |
| COc1ccc(S(=O)(=O)Nc2ccccc2C(=O)N2CCCC2)cc1C | -5.4 |
| CC(C)(C)NC(=S)Nc1ccc(Nc2ccccc2)cc1 | 11.2 |
| O=c1c2ccccc2nc(SCc2nnc(-c3ccccc3Br)o2)n1Cc1ccco1 | -3.21 |
| Cc1ccc(NC(=O)c2nc[nH]c2C(=O)N2CCc3ccccc3C2)cc1 | 18.8 |
| COc1ccc(C(=O)CSc2nc3[nH]ncc3c(=O)[nH]2)cc1 | -10.4 |
| COc1ccc(C(C(=O)NC2CCCCC2)N(Cc2cccnc2)C(=O)c2snc(C(N)=O)c2N)cc1 (stereo not drawn) | -11.8 |
| C=CCn1c(NC(=O)CC)c(C(=O)OCC)sc1=S | -4.95 |
| C/C(=N\NC(=O)c1ccccc1C)c1cccnc1 | 28.5 |
| O=[N+]([O-])c1cc(-c2nc(-c3ccncc3)no2)cc([N+](=O)[O-])c1 | -38.5 |
| O=C(NCC1CCCO1)c1nc(Cn2ccc([N+](=O)[O-])n2)no1 (stereo not drawn) | 8.69 |
| CCOc1ccc(CCNC(=O)c2ccc(=O)[nH]c2)cc1OCC | 15.4 |
| O=C1CCCC2=C1C(c1ccccn1)Nc1ccc(C(=O)c3ccccc3)cc1N2 (stereo not drawn) | 6.55 |
| CSc1ncc(CN2CCCCC2C(=O)Nc2ccc(Oc3ccccc3)nc2)cn1 (stereo not drawn) | -11 |
| CC(=O)c1cccc(CN2CCC(n3nccc3NC(=O)c3ccc4c(c3)OCO4)CC2)c1 | -7.62 |
